In PubChem BioAssay (NCATS):
“And” between values parts separate entries of the source, which are not always exact repeats. Equal values may be shown once. Inconclusive results, whose numbers are uncertain, are shown with a selection of clear calls. A potency beside an inconclusive call is a rough fit, not a confirmed value. Some structures have more than one record in an assay (separate samples or runs), and their calls can disagree. The source made the active and inactive calls. The call rests on the fitted dose curve; in most records, active means well fitted curve in the direction sought with a large enough effect; inconclusive means small, poorly fitted or top-dose-only effect, or another doubt; inactive means no such curve, though single readings can be large; an effect the other way counts as inactive or inconclusive.

Test: Confirmatory qHTS for small molecule stabilizers of the endoplasmic reticulum resident proteome: Secreted ER Calcium Modulated Protein (SERCaMP) assay (AID 1508628); further: nearly all actives have a fitted effect of over 40% in size
Settings: SERCaMP secreted luciferase ER calcium/proteostasis reporter; series mostly up to 76.3 µM; activity change, negative = decrease: at the top concentration
Procedure, shortened: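 GLuc-SERCaMP-expressing SH-SY5Y cells, pretreated 16 h with compound, are challenged with thapsigargin to empty ER calcium stores; after 4 h, coelenterazine is added directly to the medium and luminescence is imaged.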
On the % scale 0 is the no-effect control and ±100 the full control effect; potency means the concentration at half of the fitted maximal effect; tags describe the fitted curve by direction and shape.

Compound	activity change, negative = decrease	Potency
O=c1ccn([C@@H]2O[C@H](CO)[C@H](O)[C@H]2O)c(=O)[nH]1	inactive: 11.1%	–
CC[C@H]1OC(=O)[C@H](C)[C@@H](O[C@H]2C[C@@](C)(OC)[C@@H](O)[C@H](C)O2)[C@H](C)[C@@H](O[C@@H]2O[C@H](C)C[C@H](N(C)C)[C@@H]2O)[C@](C)(O)C[C@@H](C)CN(C)[C@H](C)[C@@H](O)[C@]1(C)O	–	inconclusive: 44.7 µM [inhibitor, single point]
NC12CC3CC(CC(C3)C1)C2	–	inactive and inconclusive: 44.7 µM [inhibitor, partial curve, poor fit]
COc1c(N2CCNC(C)C2)c(F)cc2c(=O)c(C(=O)O)cn(C3CC3)c12 (configuration not stated)	–	active: 14.1 µM and inconclusive: 5.01 µM [inhibitor, full curve]
CCn1cc(C(=O)O)c(=O)c2cc(F)c(N3CCNCC3)nc21	inactive: 10.1%	–
CN(C)c1ccc(O)c2c1C[C@H]1C[C@H]3[C@H](N(C)C)C(=O)C(C(N)=O)=C(O)[C@@]3(O)C(=O)C1=C2O	inactive: 14.7%	–
Cc1ccc(N(CC2=NCCN2)c2cccc(O)c2)cc1	–	inconclusive: 12.6 µM [inhibitor, partial curve]
C=C1C(=O)OC2C=C(C)CCC=C(C)CCC12 (configuration not stated)	–	inconclusive: 39.8 µM [inhibitor, single point]
CN1CCC(=C2c3ccccc3CC(=O)c3sccc32)CC1	–	active: 20 µM and active: 25.1 µM and inconclusive: 14.1 µM [inhibitor, full curve]
CN1C2CCC1CC(OC(=O)C(CO)c1ccccc1)C2 (configuration not stated)	–	inconclusive: 17.8 µM [inhibitor, partial curve] and active: 39.8 µM and inconclusive: 28.2 µM [inhibitor, partial curve]
Nc1nc2c(ncn2COCCO)c(=O)[nH]1	inactive: 17.9%	–
CC1(C)CCC(C)(C)c2cc(NC(=O)c3ccc(C(=O)O)cc3)ccc21	–	inconclusive: 0.355 µM [inhibitor, full curve, poor fit]

Test: Cell Viability qHTS for small molecule stabilizers of the endoplasmic reticulum resident proteome (AID 1508629);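 further: compound exposure about 46 h in total before the viability read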;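 on max response: human SH-SY5Y neuroblastoma cells carrying the GLuc-SERCaMP reporter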
Settings: cell viability counter-screen, 100 nM thapsigargin for final 4 h

Compound	Potency	max response
O=c1ccn([C@@H]2O[C@H](CO)[C@H](O)[C@H]2O)c(=O)[nH]1	inconclusive: 1.26 µM [cytotoxic, full curve]	–
CC[C@H]1OC(=O)[C@H](C)[C@@H](O[C@H]2C[C@@](C)(OC)[C@@H](O)[C@H](C)O2)[C@H](C)[C@@H](O[C@@H]2O[C@H](C)C[C@H](N(C)C)[C@@H]2O)[C@](C)(O)C[C@@H](C)CN(C)[C@H](C)[C@@H](O)[C@]1(C)O	inconclusive: 0.199 µM [rising, full curve]	–
NC12CC3CC(CC(C3)C1)C2	–	inactive: 12.2% and inactive: 7.67%
COc1c(N2CCNC(C)C2)c(F)cc2c(=O)c(C(=O)O)cn(C3CC3)c12 (configuration not stated)	–	inactive: -1.18% and inactive: 19.6%
CN(C)c1ccc(O)c2c1C[C@H]1C[C@H]3[C@H](N(C)C)C(=O)C(C(N)=O)=C(O)[C@@]3(O)C(=O)C1=C2O	–	inactive: 11.6%
Cc1ccc(N(CC2=NCCN2)c2cccc(O)c2)cc1	inconclusive: 31.6 µM [cytotoxic, single point]	–
C=C1C(=O)OC2C=C(C)CCC=C(C)CCC12 (configuration not stated)	inconclusive: 17.8 µM [cytotoxic, partial curve]	–
CN1CCC(=C2c3ccccc3CC(=O)c3sccc32)CC1	–	inactive: 19.1%
CC(C)=CCCC(C)=CCCC(C)=CCCC(C)=CCCC(C)=CCCC(C)=CCCC(C)=CCCC(C)=CCCC(C)=CCO	–	inactive: 2.98%
CN1C2CCC1CC(OC(=O)C(CO)c1ccccc1)C2 (configuration not stated)	inconclusive: 0.1 µM [rising, full curve, poor fit]	inactive: -15.7% and inactive: 13.4%
Nc1nc2c(ncn2COCCO)c(=O)[nH]1	–	inactive: 1.71%
CC1(C)CCC(C)(C)c2cc(NC(=O)c3ccc(C(=O)O)cc3)ccc21	inconclusive: 0.126 µM [rising, full curve]	–

Test: Primary qHTS for small molecule stabilizers of the endoplasmic reticulum resident proteome: Secreted ER Calcium Modulated Protein (SERCaMP) assay (AID 1508630)
Settings: SH-SY5Y GLuc-SERCaMP (Gaussia luciferase released on ER calcium loss) secretion, thapsigargin, luminescence; activity change, negative = inhibition: at 38.4 µM (top of the series)
Procedure, shortened: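 The SH-SY5Y reporter protocol was run at 3 concentrations up to 38.3 uM (primary) or 11 concentrations (follow-up): 16 h compound, 100 nM thapsigargin for 4 h, then extracellular luciferase luminescence.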

Compound	activity change, negative = inhibition	Potency
CC(C)n1cnc2c(NCCCCCCNC(=O)OC(C)(C)C)nc(NCCO)nc21	inactive: 198%	–
NC(=O)c1ccc2[nH]ccc2c1	–	inconclusive: 12.6 µM [inhibitor, partial curve, poor fit]
NC12CC3CC(CC(C3)C1)C2	–	inconclusive: 28.2 µM [inhibitor, partial curve, poor fit] and inconclusive: 7.94 µM [inhibitor, partial curve, poor fit]
COc1c(N2CCNC(C)C2)c(F)cc2c(=O)c(C(=O)O)cn(C3CC3)c12 (configuration not stated)	–	inconclusive: 10 µM [inhibitor, partial curve, poor fit] and active: 20 µM
CC(C)NCC(O)c1ccc(NS(C)(=O)=O)cc1 (configuration not stated)	–	inconclusive: 8.91 µM [inhibitor, partial curve, poor fit]
CCn1cc(C(=O)O)c(=O)c2cc(F)c(N3CCNCC3)nc21	–	inconclusive: 35.5 µM [inhibitor, partial curve, poor fit]
COC(c1ccccc1)(c1ccccc1)[C@H](Oc1nc(C)cc(C)n1)C(=O)O	–	inactive
CN(C)c1ccc(O)c2c1C[C@H]1C[C@H]3[C@H](N(C)C)C(=O)C(C(N)=O)=C(O)[C@@]3(O)C(=O)C1=C2O	–	active: 31.6 µM
NC(=O)c1ncn([C@@H]2O[C@H](CO)[C@@H](O)[C@@H]2O)c1N	–	inconclusive: 0.119 µM [inhibitor, partial curve, poor fit]
CO[C@H]1C[C@@H]2CC[C@@H](C)[C@@](O)(O2)C(=O)C(=O)N2CCCC[C@@H]2C(=O)O[C@H]([C@H](C)C[C@@H]2CC[C@H](OC(=O)C(C)(CO)CO)[C@H](OC)C2)CC(=O)[C@H](C)C=C(C)[C@@H](O)[C@@H](OC)C(=O)[C@H](C)C[C@H](C)C=CC=CC=C1C	–	inconclusive: 0.266 µM [inhibitor, full curve]
CC(C)[C@H](N)C(=O)OCCOCn1cnc2c(=O)[nH]c(N)nc21	–	inconclusive: 12.6 µM [inhibitor, single point]
Cc1ccc(N(CC2=NCCN2)c2cccc(O)c2)cc1	–	inconclusive: 10 µM [inhibitor, partial curve, poor fit]
C=C1C(=O)OC2C=C(C)CCC=C(C)CCC12 (configuration not stated)	–	inconclusive: 10 µM [inhibitor, partial curve, poor fit]
O=C(NCCO[N+](=O)[O-])c1cccnc1	–	inconclusive: 31.6 µM [inhibitor, full curve] and inconclusive: 2.24 µM [inhibitor, full curve, poor fit]
Cc1ccc(Nc2cc(-c3cccc(N4C(=O)c5ccccc5C4=O)c3)ncn2)cc1NS(C)(=O)=O	inactive: 0%	–
CC1(C)[C@H](O[C@H]2O[C@H](C(=O)O)[C@@H](O)[C@H](O)[C@H]2O[C@@H]2O[C@H](C(=O)O)[C@@H](O)[C@H](O)[C@H]2O)CC[C@@]2(C)[C@H]1CC[C@]1(C)[C@H]2C(=O)C=C2[C@H]3C[C@@](C)(C(=O)O)CC[C@]3(C)CC[C@]21C	–	inconclusive: 0.0042 µM [inhibitor, full curve]
Cc1cc(=O)oc2cc(O)ccc12	–	inconclusive: 28.2 µM [inhibitor, single point]
NC(=O)c1ccc2nc(-c3ccc(Oc4ccc(Cl)cc4)cc3)[nH]c2c1	–	inconclusive: 0.266 µM [inhibitor, full curve, poor fit]
CN1CCC(=C2c3ccccc3CC(=O)c3sccc32)CC1	–	inconclusive: 10 µM [inhibitor, partial curve, poor fit] and inconclusive: 8.91 µM [inhibitor, partial curve, poor fit] and inconclusive: 11.2 µM [inhibitor, partial curve, poor fit]
O=C(O)[C@H]1O[C@H](Oc2cc3oc(-c4ccccc4)cc(=O)c3c(O)c2O)[C@H](O)[C@@H](O)[C@H]1O	–	inconclusive: 0.0067 µM [inhibitor, full curve, poor fit]
CCN(CC)CCOc1ccc(C(=C(Cl)c2ccccc2)c2ccccc2)cc1	–	inconclusive: 0.53 µM [inhibitor, full curve, poor fit]
CC(=O)SCC(Cc1ccccc1)C(=O)NCC(=O)OCc1ccccc1 (configuration not stated)	inactive: 302%	–
CC1(C)C(=O)N(CCN2CCC(C(=O)c3ccc(F)cc3)CC2)c2ccccc21	–	inconclusive: 0.0266 µM [inhibitor, full curve, poor fit]
CC(C)=CCCC(C)=CCCC(C)=CCCC(C)=CCCC(C)=CCCC(C)=CCCC(C)=CCCC(C)=CCCC(C)=CCO	–	inconclusive: 10 µM [inhibitor, partial curve, poor fit]
CN(N=O)C(=O)N[C@H]1C(O)OC(CO)[C@@H](O)[C@H]1O (some centres not stated)	–	inconclusive: 31.6 µM [inhibitor, single point]
CO[C@H]1C=CO[C@@]2(C)Oc3c(C)c(O)c4c(O)c(c(C=NN5CCN(C)CC5)c(O)c4c3C2=O)NC(=O)C(C)=CC=C[C@H](C)[C@H](O)[C@@H](C)[C@@H](O)[C@@H](C)[C@H](OC(C)=O)[C@H]1C	–	inconclusive: 0.0024 µM [inhibitor, full curve, poor fit]
CC[C@@H]1C=C(C)C[C@H](C)C[C@H](OC)[C@H]2O[C@@](O)(C(=O)C(=O)N3CCCC[C@@H]3C(=O)O[C@H](C(C)=C[C@@H]3CC[C@H](Cl)[C@H](OC)C3)[C@H](C)[C@@H](O)CC1=O)[C@H](C)C[C@H]2OC	inactive: -38.4%	–
